According to the supplement of paper PMC11417369:
± gives the standard deviation of the averaged measurements. The list shows a part of the results.

tested on: PfAP2-G AP2 domain (GST-tagged); experiment: gcPBM binding intensity (ln(normalized median fluorescence intensity)); higher = stronger DNA binding
Procedure, shortened: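 Binding intensity is the highest Masliner-normalised natural-log median intensity over replicate spots in either probe orientation. To obtain it, GST-tagged P. falciparum DNA-binding domains made in E. coli were incubated for 1 h on an Agilent 4 × 180k array of primer-extended double-stranded 36-bp intergenic genomic probes plus negative controls. Detection used Alexa488 anti-GST antibody with scanning at 488 nm.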

In order of rising “gcPBM binding intensity (ln)” value:
1. TTTTTTTTTTTTTTTTTTTTTTTTAAATGCTTCTAA [TGCATGCA_negctrl_site253]  9.46 ± 0.35
2. TTTTTTTTTTTTTTTTTTTTTTTCTACCTATTTATT [CACACA_negctrl_site94]  9.49 ± 0.42
3. TGTTGTTATAAAAAAAAAAAAAAAAAAAAAAAAAAA [GTGCAC_negctrl_site230]  9.62 ± 0.2
4. AATAAAAATAACCTAACATGCAAAAAAAAAAAAAAA [TGCATGCA_site718]  9.69 ± 0.43
5. TTTTAAGATATAAATTAATACTTATATATATAGATA [CACACA_negctrl_site22]  9.695 ± 0.078
6. ATTGAAGGGAAATATATAATCATATTCAAAATAAAA [CACACA_negctrl_site728]  9.7 ± 0.12
7. ATGAATATTTACAATCTTATTATGTTCAAAATTAAT [CACACA_negctrl_site592]  9.735 ± 0.064
8. ATTGCATTTGTAGATAATACAATATGGATTGTTATA [CACACA_negctrl_site1749]  9.75 ± 0.042
9. AACAAATAAGATAAATGACTTAACAAAAGAAAAAAG [CACACA_negctrl_site1409]  9.765 ± 0.035
10. TTCTTTTCTCTTTTAATCATATTATATAAATGAATA [CACACA_negctrl_site820]  9.83 ± 0.16
11. GAAATAATAAAATCGACACACAAAAAAAAAAAAAAA [CACACA_site3476]  9.86 ± 0.52
12. AAAAATTTTATATTCACACACATATTTATATTTATA [CACACA_site6439]  9.885 ± 0.021
13. AAAAAAAAAAAATTCACACACATATAAAAAATTAAG [CACACA_site728]  9.905 ± 0.007
14. TTATACAACAAGAAAATTATAAAATGTAACATATAT [GTGCAC_negctrl_site406]  9.9 ± 0.18
15. ATATTAATATAATGTGCATGTTCAATGATCTTTTTA [TGCATGCA_site22]  9.9 ± 0.014
16. CTATTTAAAATTTGAACACACATTATTTATTTTAAA [CACACA_site3114]  9.91
17. AAAGTTATGATATATACACACATATAAATATTAAAT [CACACA_site6361]  9.92 ± 0.014
18. ATGCAATAAATATACACACACAAATCTATATTTATA [CACACA_site7179]  9.93 ± 0.12
19. AGTAAATAACACAAATATGAATGAAAAAAAAAATAT [GTGCAC_negctrl_site235]  9.94 ± 0.14
20. CCTTTCACATATAATACATGCATTATTATATATGAA [TGCATGCA_site287]  9.96 ± 0.12
21. ATATTAACTTTTATTACACACTCTCAACTTTTATTT [CACACA_site6176]  9.975 ± 0.021
22. TACATGCTTATTTTAACACACAAATGGTAGTAATAA [CACACA_site766]  9.97 ± 0.11
23. TCACAAATGTATTATACACACAAGTTTTCTTTAATA [CACACA_site4107]  9.995 ± 0.092
24. TAAATATATAAATACACACAAACATACATATATATA [CACACA_site4050]  10 ± 0.21
25. TAATAAATAAGACACACACACATATATATATATTAT [CACACA_site1389]  10.01 ± 0.042
26. GGAATATAAATACATACACACATATATATATATATA [CACACA_site4998]  10 ± 0.23
27. ATAATTATTAATATAGTGCATTGGCATAATAATATA [GTGCAC_site9810]  10.1 ± 0.2
28. TATAATAAATCAAATGCACACACACTAATAAAAAAA [CACACA_site7937]  10.1 ± 0.2
29. TTAAATAACCTCAAGGATAAGAAAAAATTAAAAATT [CACACA_negctrl_site1336]  10.1 ± 0.12
30. GGATTTTACCATAGCACACATATATGAATATTTTTC [CACACA_site1814]  10.1 ± 0.16
31. TTTTAATTATATTATGCACACACAATTGGAAAAAAA [CACACA_site8598]  10.2 ± 0.23
32. GTAAAAAATATGAATACACACATAAAGGAAATAACA [CACACA_site1997]  10.25 ± 0.042
33. ATATAAAATAAATAAGTGCAGATAAATTTATGTGAC [GTGCAC_site9504]  10.25 ± 0.057
34. CTAATCATAAAATATACACACACGGATACATTAAAT [CACACA_site2685]  10.2 ± 0.099
35. AATAATAAAAATATTGTGCACTTGTATATTTATTAT [GTGCAC_site9963]  10.2 ± 0.2
36. TTAGATATAATATATACACACCAACGAACGAAGAAA [CACACA_site4763]  10.3 ± 0.29
37. CGTATGAGTAAATACACACCCACGTATATATATAAA [CACACA_site5728]  10.3 ± 0.31
38. CAAAATGATATGACAACACACAACCTATAGTAAGAC [CACACA_site1287]  10.3 ± 0.23
39. AACATATAAAAATATGCACACACAGGAATACAAACA [CACACA_site8127]  10.29 ± 0.064
40. AAGTTATACACATCAACACACACATACAACGTGGTG [CACACA_site8312]  10.4 ± 0.16
41. CTTTATATATATTGCGTGCACATTTTTTTTTTTTTT  10.4 ± 0.33
42. TACAAATATATATGCACACACATATATGTATATGTG [CACACA_site3075]  10.5 ± 0.22
43. TGTGCGGAAATAAGTGCACACATAGATATCTGTATT [CACACA_site5935]  10.5 ± 0.36
44. ATATCAAATAATTTAGTGCACTTTTTTTTTTCTTTT [GTGCAC_site9629]  10.5 ± 0.45
45. ATATAAAAATATATTAATATAAATAAATGGACATAT [XGTACX_negctrl_site488]  10.6 ± 0.56
46. ATAAAATACAAAGGGACACACATATGAGTCTACAAA [CACACA_site3092]  10.6 ± 0.4
47. CTTTTTACTTAATACACACACACACCCAAAAAAAAA [CACACA_site948]  10.6 ± 0.49
48. CATTTTATTTTCTTTGTGCACAAAAATATTTTTTCT  10.6 ± 0.18
49. GTCACATTGTTATATTGTACAAATGTCGTTCTTTTT [XGTACX_site8098]  10.7 ± 0.4
50. ATTTCTCTATCGTAATGTACAAAAAAAAGGGAAAAG [XGTACX_site1335]  10.7 ± 0.47
51. TAATATATAAGTATTTGTACATATTCATTCATCTAT [XGTACX_site2935]  10.8 ± 0.41
52. AAAAAAATTTATTAAAGTACTAGATAATCATATAAA [XGTACX_site1455]  10.8 ± 0.54
53. AACATTATAGGACACACACACACATATATATATATA [CACACA_site4721]  10.9 ± 0.61
54. GAGTAAAAATTAAAATGTACATATTATATATATTTA [XGTACX_site1319]  10.9 ± 0.39
55. TTCTGTATACGGTGTGCACACAATTAAAAAAAAAAA [CACACA_site1416]  10.9 ± 0.74
56. TGTGGTTTTTATAATTGTACATATATATAAATCTAT [XGTACX_site4766]  11 ± 0.65
57. TGTTCTAATTTTAATTGTACATATATACATATATAT [XGTACX_site7290]  11 ± 0.67
58. TTTTTTTTTTTTTTTTTTTTTTTTGGGTCCCATACA [CACACA_negctrl_site913]  11.1 ± 0.99
59. ATGAATGTCCCAAGATGTACAATTATATATAACACA [XGTACX_site4702]  11.1 ± 0.75
60. TATTTTTTAACACAACGTACATATAAAAAATATTTA [XGTACX_site6025]  11.1 ± 0.72
61. ATTTATTTATTTTCATGTACATATGTAAATCAATAA [XGTACX_site3886]  11.1 ± 0.71
62. TTTATACTTTCAAAATGTACATATATATATATATAT [XGTACX_site6241]  11.1 ± 0.63
63. CATCAAAATGAAGCATGTACATAATATAAATAAATA [XGTACX_site4647]  11.1 ± 0.58
64. AGAATAATATAATAAAGTACAAACCTATCTAACTAC [XGTACX_site5477]  11.2 ± 0.51
65. ATTATAAATAAATATTGTACTTATATGATCTATTTG [XGTACX_site3820]  11.2 ± 0.87
66. TAAACACATTATATATGTACATAATAAAAAAAAAAA [XGTACX_site7907]  11.2 ± 0.83
67. TGACGACATTTCTTATGTACTAATTTTTCTTCCTTT [XGTACX_site4391]  11.2 ± 0.84
68. TAATATATAATAAAGTGTACATATGCTTTATTATTA [XGTACX_site1920]  11.2 ± 0.79
69. GTCATTAAAAAAATATGTACTTAAATGTATGCATAT [XGTACX_site5951]  11.2 ± 0.71
70. AATAAATACAAAAATGTACACACATATATATATTTT [CACACA_site9167]  11.2 ± 0.73
71. CACTATCAATATATATGTACATATATATATATATAT [XGTACX_site7854]  11.3 ± 0.72
72. CTTATACATTATTAACGTACATGTTATATGAATAAC [XGTACX_site5752]  11.3 ± 0.9
73. AAATCCTTATTTTTTTGTACGTAATATTTTATATGG [XGTACX_site1530]  11.3 ± 0.67
74. TGAATGCTTTTATGCACACGTACAAAAATATTATAT [CACACA_site2668]  11.3 ± 0.95
75. TAATATATAATTTTATGTACATAATTATAAACCCAT [XGTACX_site919]  11.3 ± 0.73
76. TATGTATATTGAGATTGTACTTGTAATATTAAACAT [XGTACX_site3878]  11.3 ± 0.99
77. GGTATTTTCACATATAGTACACAAAAATAAAATAAA [XGTACX_site2139]  11.3 ± 0.85
78. ATATATAAAAAAGCTAGTACACAAAAATATATAATG [XGTACX_site3001]  11.4 ± 0.6
79. GGATATATTATATGTACACACACATATAAGGGATTA [CACACA_site7884]  11.4 ± 0.93
80. TATATATTATATATATGTACTTATTTATTAATTTAT [XGTACX_site5253]  11.4 ± 0.98
81. AAAAAATACCAAAGGGGTACTTACACATAATACTTA [XGTACX_site2111]  11.4 ± 1.1
82. TCAATATATATAAGAAGTACATGTGAATGAAAAAAA [XGTACX_site1674]  11.4 ± 0.81
83. CAACTTATTAAAAGTCGTACAAATGGGAAGAAGGAA [XGTACX_site6325]  11.5 ± 0.81
84. TATATAATATAATGTAGTACATGTTTTATTTTTTAC [XGTACX_site7735]  11.5 ± 0.79
85. TAAAAAAAGAAAAAAAGTACATGCTACTTTTATGAT [XGTACX_site7818]  11.5 ± 1
86. TTGTATAAAATATGTAGTACAATAATATAACATTTT [XGTACX_site8607]  11.5 ± 0.9
87. AAAAAAAAAAAAAAAAGTACAGACGTCAAAAAAAAA [XGTACX_site4817]  11.6 ± 0.76
88. ATATATATATAGTACGCACACATAGTTGTACATTAA [CACACA_site2787]  12 ± 1.3
